To fix the notation:
B1: TPR 5TU (parent)
chain: GGAUCUUCUCGAUCUAACAAAAAAGACAAAUCUGCCACAAAGCUUGAGAGCAUCUUCGGAUGCAGAGGCGGCAGCCUUCGGUGGCGCGAUAGCGCCAACGUUCUCAACUAUGACACGCAAAACGCGUGCUCCGUUGAAUGGAGUUUAUCAUG

Variants at the background level are over-represented here.

Here are results for 83 variants from the RNAGym collection of RNA variant scans (doi:10.1073/pnas.2313332121).

The variants in this series derive from B1. Briefly: polymerase ribozyme fitness, log enrichment relative to wild type (log ratio); higher = more active; in vitro selection for triplet polymerase activity. A digest of the protocol:
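In triplicate, a single round of in vitro selection was run on each mutant library, PCR-built and transcribed, covering one subunit of a heterodimeric triplet polymerase ribozyme. Frozen incubation at −7 °C followed annealing with a biotinylated primer, partner subunit and triplets, and extended constructs were then gel-excised, streptavidin-captured and taken through RT-PCR. Fitness is the logarithm of genotype enrichment over wild-type enrichment, from inverse-variance-weighted replicate averages of Illumina-sequenced inputs and outputs. […] only genotypes with ≥10 input reads and ≥1 read per output were kept.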
Take C76U U77C C93A C99G U101G C108U G136A: the “polymerase ribozyme fitness (log ratio)” value is not above -4.2.

Regarding C76G A98G A113U U151G, the “polymerase ribozyme fitness (log ratio)” value was not above -4.2.

For the variant A73G C85U U130G G141U, the “polymerase ribozyme fitness (log ratio)” value is not above -4.2.

U82C A115U G136C: the “polymerase ribozyme fitness (log ratio)” value was -3.84.

On to U77A U78C G94U C95G C105U, for which the “polymerase ribozyme fitness (log ratio)” value is not above -4.2.

Consider A73U U102G, for which the “polymerase ribozyme fitness (log ratio)” value was not above -4.2.

Take C76G U127C A150U: the “polymerase ribozyme fitness (log ratio)” value was not above -4.2.

In the case of C79U G86U, the “polymerase ribozyme fitness (log ratio)” value was not above -4.2.

As for C76U C95U, the “polymerase ribozyme fitness (log ratio)” value stood at 0.961.

Turning to C76A A89G C95G, the “polymerase ribozyme fitness (log ratio)” value is not above -4.2.

With G81A U127C, the “polymerase ribozyme fitness (log ratio)” value was -2.04.

For the variant U77C A91U U146A, the “polymerase ribozyme fitness (log ratio)” value was not above -4.2.

For the variant C75U A121G, the “polymerase ribozyme fitness (log ratio)” value was -0.596.

U82G A98C C103A A138C U144G: the “polymerase ribozyme fitness (log ratio)” value was not above -4.2.

Regarding C76U C85A G88C C118U, the “polymerase ribozyme fitness (log ratio)” value was not above -4.2.

As to C79G G81U G92A C95A, the “polymerase ribozyme fitness (log ratio)” value is not above -4.2.

As for G80U C105U C108U U109G, the “polymerase ribozyme fitness (log ratio)” value was not above -4.2.

Regarding C79A C96A, the “polymerase ribozyme fitness (log ratio)” value is -4.03.

Turning to C79A C96U, the “polymerase ribozyme fitness (log ratio)” value was not above -4.2.

With C79U U109G, the “polymerase ribozyme fitness (log ratio)” value was not above -4.2.

Take A73G C95U A122U C125U U127G A138G: the “polymerase ribozyme fitness (log ratio)” value is not above -4.2.

In the case of C76U C93G C103G G117A, the “polymerase ribozyme fitness (log ratio)” value was not above -4.2.

As for C76G A115G A121U, the “polymerase ribozyme fitness (log ratio)” value was not above -4.2.

On to U82C C96G A115U U134A U146G A147G, for which the “polymerase ribozyme fitness (log ratio)” value is not above -4.2.

Turning to C75A C118U, the “polymerase ribozyme fitness (log ratio)” value is not above -4.2.

C79G C114G G133C: the “polymerase ribozyme fitness (log ratio)” value was not above -4.2.

Regarding U82A U102G, the “polymerase ribozyme fitness (log ratio)” value was -2.54.

Consider U78C C79A C85A G112U U139A, for which the “polymerase ribozyme fitness (log ratio)” value was not above -4.2.

As to G80C A91G, the “polymerase ribozyme fitness (log ratio)” value is not above -4.2.

On to C79U C85G G124U, for which the “polymerase ribozyme fitness (log ratio)” value is not above -4.2.

Take G81A: the “polymerase ribozyme fitness (log ratio)” value is -0.305.

On to G81C, for which the “polymerase ribozyme fitness (log ratio)” value was -0.471.

For G81U, the “polymerase ribozyme fitness (log ratio)” value was -0.702.

On to C79A G94C C95A, for which the “polymerase ribozyme fitness (log ratio)” value was not above -4.2.

With C79G G86C C99U U101G A142C, the “polymerase ribozyme fitness (log ratio)” value is not above -4.2.

Take C72U C93G U130C G133C: the “polymerase ribozyme fitness (log ratio)” value is not above -4.2.

Consider A73U G81U A106G A115G A119U A147C, for which the “polymerase ribozyme fitness (log ratio)” value was not above -4.2.

G74C A89U U146C: the “polymerase ribozyme fitness (log ratio)” value was not above -4.2.

On to U77C U104A G126U, for which the “polymerase ribozyme fitness (log ratio)” value is not above -4.2.

Turning to U82A C95A A97C C103U U134A, the “polymerase ribozyme fitness (log ratio)” value was -3.46.

As for G74C G94C, the “polymerase ribozyme fitness (log ratio)” value is not above -4.2.

In the case of A73C C96G C118U G143U, the “polymerase ribozyme fitness (log ratio)” value was not above -4.2.

In the case of C79G C85G C96G U146A C149A, the “polymerase ribozyme fitness (log ratio)” value was not above -4.2.

As for A73U G84C U104G A120U G133C G141A U144C, the “polymerase ribozyme fitness (log ratio)” value is not above -4.2.

For U82G A138G A150C, the “polymerase ribozyme fitness (log ratio)” value is not above -4.2.

Consider C79A G86U A89C C103G, for which the “polymerase ribozyme fitness (log ratio)” value is not above -4.2.

Consider C76G U90A C116G, for which the “polymerase ribozyme fitness (log ratio)” value was not above -4.2.

In the case of G74C U82C C87U, the “polymerase ribozyme fitness (log ratio)” value is not above -4.2.

Regarding A73U G88U C96A C103G, the “polymerase ribozyme fitness (log ratio)” value is not above -4.2.

Consider A73G C75G U82C, for which the “polymerase ribozyme fitness (log ratio)” value was not above -4.2.

Regarding G74U C93U, the “polymerase ribozyme fitness (log ratio)” value was not above -4.2.

With C75U G92A C125A U145C, the “polymerase ribozyme fitness (log ratio)” value was not above -4.2.

As to C79A G140A, the “polymerase ribozyme fitness (log ratio)” value is not above -4.2.

Consider A73U G83A C99U G117C C131G U135C U145G, for which the “polymerase ribozyme fitness (log ratio)” value is not above -4.2.

Consider U78G C116U A137C, for which the “polymerase ribozyme fitness (log ratio)” value is not above -4.2.

With A73C G84U C93A U146G, the “polymerase ribozyme fitness (log ratio)” value was not above -4.2.

Consider U82C G84A A98U A115U G141A, for which the “polymerase ribozyme fitness (log ratio)” value was -2.58.

Consider C75U C96G, for which the “polymerase ribozyme fitness (log ratio)” value worked out at 0.716.

On to U82G A121G, for which the “polymerase ribozyme fitness (log ratio)” value is -0.49.

Turning to U77G U78G A106C, the “polymerase ribozyme fitness (log ratio)” value is not above -4.2.

As for U78G U90G C131A, the “polymerase ribozyme fitness (log ratio)” value was not above -4.2.

Turning to C75A C85A C108A G126A, the “polymerase ribozyme fitness (log ratio)” value was not above -4.2.

Take C79A G117A: the “polymerase ribozyme fitness (log ratio)” value was not above -4.2.

For C75U C93G A121U C123U, the “polymerase ribozyme fitness (log ratio)” value is -2.27.

C75G G94A A121G: the “polymerase ribozyme fitness (log ratio)” value was not above -4.2.

Consider G80C C131G, for which the “polymerase ribozyme fitness (log ratio)” value was -4.04.

As for G74A U148A, the “polymerase ribozyme fitness (log ratio)” value is not above -4.2.

On to C76G G92A U134C, for which the “polymerase ribozyme fitness (log ratio)” value is not above -4.2.

For U82C G88C C105U G141A C149U, the “polymerase ribozyme fitness (log ratio)” value is not above -4.2.

Turning to A73U C85U G117U, the “polymerase ribozyme fitness (log ratio)” value was -0.841.

Turning to C76G G84U C116A, the “polymerase ribozyme fitness (log ratio)” value is not above -4.2.

As to C75U G92C C132A, the “polymerase ribozyme fitness (log ratio)” value is not above -4.2.

C76A U77G C95U G100U: the “polymerase ribozyme fitness (log ratio)” value was -4.15.

On to C76G C85A G88C C95A A115C, for which the “polymerase ribozyme fitness (log ratio)” value is not above -4.2.

On to C75A C87U C96U, for which the “polymerase ribozyme fitness (log ratio)” value was not above -4.2.

For the variant C79A G94C, the “polymerase ribozyme fitness (log ratio)” value was not above -4.2.

In the case of C76U U77C C85U C108A A120U, the “polymerase ribozyme fitness (log ratio)” value was not above -4.2.

Take C79G U82C A89U G92U: the “polymerase ribozyme fitness (log ratio)” value was not above -4.2.

As to U78G C85G A142G U146C, the “polymerase ribozyme fitness (log ratio)” value was not above -4.2.

Regarding U78G G86A, the “polymerase ribozyme fitness (log ratio)” value is not above -4.2.

In the case of C76G G83U C103U, the “polymerase ribozyme fitness (log ratio)” value was not above -4.2.

Regarding G74U C85G, the “polymerase ribozyme fitness (log ratio)” value was not above -4.2.

In the case of C79U A98G C125G, the “polymerase ribozyme fitness (log ratio)” value was not above -4.2.
